{"source": "PubChem BioAssay (NCI)", "tested_on": "SNB-19 CNS", "assay": "NCI-60 one-dose screen, 48 h (100 = growth as untreated, 0 = no growth, -100 = all killed)", "conditions": "0.25 µM", "note": "A structure can be active in one record and inactive in another.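 Cells were grown in 96-well plates and exposed to the test compound at a single concentration for 48 hours; results are reported as percent growth, with values below 10 considered active.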 The source holds more than one record for some entries. The list is limited to them. The source may hold further records. These are repeated runs of one drug, at its own concentration, as given; one value stands for one run. Additions like (4×) stand for listed records that agree."}
{"smiles": "COc1cccc2c1C(=O)c1c(O)c3c(c(O)c1C2=O)C[C@@](O)(C(=O)CO)C[C@@H]3OC1CC(N)C(O)C(C)O1", "note": "(stereo not given in full)", "values": [{"measurement": "growth", "setting": "runs of 2006", "value": "active: 8.07%, 9.72%"}, {"measurement": "growth", "setting": "runs of 2007", "value": "inactive: 14, 18.6, 19, 16.2, 17.4, 15 (2×), 35.4, 24.3, 36.3, 30.3, 20.5, 15.3, 24.5, 39.8, 36.6, 27.8, 13.1, 14.2, 23.9, 17 (2×), 29.8, 15.9, 19.2, 24.2, 23.1, 26.3, 64.5, 56.7, 38.7, 20.7, 20.4, 17.1, 21.2, 23.4% and active: 8.29%, 9.46%, 8.68%"}, {"measurement": "growth", "setting": "runs of 2008", "value": "inactive: 27.1, 18, 21.5 (2×), 16.1 (2×), 49.2, 31.6, 24.3, 25.8, 33.2, 28.8, 20.5 (2×), 21.9, 27.8, 10.1, 31.9, 14.6 (2×), 11.2, 17.3 (2×), 27.9, 26.5, 31.1, 29.7, 20.2, 86, 16.7, 10.4, 14 (2×), 14.8, 25.2, 25.5, 49.7, 21, 10.6, 21.6, 17.4, 29.3, 16.3, 41.8, 19, 23.3% and active: 9.1, -2.16, 9.27, 9.21, 8.3%"}, {"measurement": "growth", "setting": "runs of 2009", "value": "inactive: 22.5, 20.3, 31.5, 45, 13.3 (2×), 17.1, 21.7, 25.5, 26.5 (2×), 30.5, 31.7, 21.9 (3×), 34.5, 36.9, 24.7, 17.8, 20.6, 23.1, 24.6, 21.8, 32.4, 16.7, 22.3, 28.4, 24.8, 29.6, 33.4, 10.7, 30.3, 19.2, 13.4 (2×), 29.7, 12.3, 12.1, 10.1, 27.7, 14.1, 20.1, 22.1, 13.2, 18.2, 18.3, 30.2, 41.9, 19.5 (2×), 18.9, 32.5, 26.9, 19.9, 19.8, 33.5, 23.8% and active: -3.39, 9.49, -8.11, 9.28, 5.39%"}, {"measurement": "growth", "setting": "runs of 2010", "value": "inactive: 18.2, 26.6 (2×), 36, 35.7, 30.3, 39.7, 25.4 (2×), 24 (2×), 31.2, 31.5, 28.3, 25.2, 22.4, 27, 21.7 (3×), 24.4, 26.3, 31.8, 26.8, 27.9, 24.8 (2×), 18, 39.5, 37, 23.2, 30.2, 20.6, 22.6, 17.2, 24.2, 19.2, 25.6, 23.3, 28, 21.5, 33, 31.6, 27.1, 25.5 (2×), 29.5, 25.7, 24.1 (2×), 26.7, 29.6, 27.4%"}, {"measurement": "growth", "setting": "runs of 2011", "value": "inactive: 27, 26.7 (2×), 30.3 (3×), 30.7 (2×), 35.3 (2×), 26.6, 27.1, 32, 15.9, 31.2, 26.9 (3×), 28.4, 24.7, 26.8 (2×), 27.9, 32.1, 28.9 (2×), 24.8, 29.3, 35.9, 30.2, 29.1, 31.3, 27.3, 26 (3×), 20.9 (2×), 23.2, 24.2 (2×), 22.3, 21.5, 18.2, 25.1, 17.4, 23.8, 20.4, 22.1, 25, 21.2, 25.8, 25.2, 28, 27.7, 26.2, 28.2, 27.8% (2×)"}, {"measurement": "growth", "setting": "runs of 2012", "value": "inactive: 25.9, 20.2, 33.3 (2×), 33 (2×), 31.4 (2×), 36.9, 35.8, 40.3 (3×), 43.6, 26.9, 27.6, 27.9 (2×), 25.8 (2×), 30.7 (2×), 30.9, 37.1, 38.6, 34.7, 31.3 (2×), 33.8, 44.6, 48.1, 51.7, 48.7, 49.4, 49.3, 37.7, 38, 30.6, 47.6, 43.4, 35.5, 20 (2×), 41.1, 35, 36.4, 28 (3×), 33.2, 35.2, 38.4, 41.2, 39.2 (2×), 44.1, 23.2, 32.9, 37.3, 39.1, 47, 43.7, 46.3, 34.2, 38.5, 34, 25.6, 33.4, 36, 36.6%"}, {"measurement": "growth", "setting": "runs of 2013", "value": "inactive: 33.7, 26.1, 26.3, 30.6, 33.4, 29.3, 37, 31, 43.4, 38.3, 45.7, 52.4, 56.6, 52.3, 46, 60.5, 48.3, 38.8, 44.4, 36.3, 34.5, 45.5, 37.8, 37.4, 40.9, 35.8, 38.5, 30.7, 24.5, 25.7, 27, 35.7, 36.4, 32.4, 29.1, 35.1, 39.8, 34.3, 32.2, 39, 36.1, 40.5, 15.3, 20.8, 24.7, 16, 25.6, 36, 27.9, 16.7 (2×), 27.2, 32.3, 25.5, 10.5, 21.1, 23.7, 17, 18.8, 24.9, 30.4, 21.4, 12.7, 27.4, 12.6% and active: -7.15%, 7.88%, 1.81%"}, {"measurement": "growth", "setting": "runs of 2014", "value": "inactive: 27.9, 30, 21.7, 12.1, 14.5 (3×), 16.8 (2×), 12.9, 13.9, 19.2, 16 (2×), 13.6, 22.5 (2×), 21.6, 21.4 (2×), 25.8, 23.8, 24.7, 18.3 (2×), 18.2, 18.9, 14.8, 13.3, 13.4, 18.8 (2×), 18.4, 13.1 (3×), 14.2, 16.4, 19 (2×), 18.6 (2×), 10.8, 13.2, 16.2, 17.8, 21.2, 20.5, 26.1, 22.1, 13.7, 16.1, 15.4, 15, 20.3, 24.8, 17.2% and active: 8.16, -8.08, -14.9, -6.77, -6.69, 2.78, 9.92, 7.93, 9.04, 9.77%"}, {"measurement": "growth", "setting": "runs of 2015", "value": "inactive: 11.4, 25.8, 45.7, 13.2 (2×), 15, 16.4 (3×), 17.8, 26, 26.1, 14.9, 17.2, 25.4, 20, 16.6 (2×), 12.6, 23.8, 23.1, 19.5 (3×), 17.3 (2×), 17.6, 19.3, 15.9, 28.7, 18.8 (2×), 19, 23.2, 20.8, 21.3, 24.7, 18.6, 18.3, 13 (2×), 22.2, 19.8, 12.1 (2×), 21.5, 20.2, 14.4, 11.2, 21.6 (2×), 27.1, 20.7, 11, 21.2, 16.7, 19.2, 12.7, 14.2, 19.9, 20.1, 27.3, 20.3, 29.6% and active: 8.61, 7.52, 9.65 (2×), 8.78, 7.39%"}, {"measurement": "growth", "setting": "runs of 2016", "value": "inactive: 22.6, 14.8 (2×), 24, 25.6, 26.7 (2×), 20.9 (2×), 20.7, 20.2 (2×), 21.9, 22.7 (2×), 18.4 (2×), 18.2 (2×), 18.9, 22.3 (2×), 28.9, 29.6, 24.1, 27.8, 31.2, 22.1 (2×), 19.9, 26.5, 22.4, 14.5, 19.6, 16.2, 16.4, 13.7, 19, 14.6, 20.1, 13.6, 20.4, 14.7, 19.3 (2×), 16, 15.9, 23.1, 17 (2×), 19.8, 15.4, 19.2, 28.2, 25, 20.8, 20 (3×), 21.6 (2×), 17.6 (2×), 25.7, 26.9, 28.5, 23.9, 21.5, 20.3, 12, 12.7, 17.1% and active: 9.61%"}, {"measurement": "growth", "setting": "runs of 2017", "value": "inactive: 18.3 (2×), 19.2 (2×), 20.3, 16.8 (2×), 18.2 (2×), 17.4, 15.4 (5×), 13.9, 13.4 (3×), 15.9 (2×), 14 (2×), 12.6, 12.7 (2×), 13.7, 11.2, 10.9, 14.4, 14.7 (3×), 13.3 (3×), 16.4, 14.6 (2×), 13, 13.1 (2×), 17 (2×), 16.1, 17.1, 16.6 (2×), 16.7 (3×), 17.3, 19.3, 18 (2×), 18.4 (2×), 14.5 (5×), 20, 20.4, 16.2, 14.1, 20.2, 20.5, 15%"}, {"measurement": "growth", "setting": "runs of 2018", "value": "inactive: 12.3, 14.6 (2×), 11.8, 12 (2×), 14, 13.1, 13.2 (2×), 14.1, 16 (2×), 15.4, 19.5 (2×), 23.7, 19.2 (2×), 19.3, 19.6 (2×), 18.2 (3×), 14.2, 18, 13.7, 18.4, 18.3 (2×), 21.2, 20.3, 17.6, 20.4, 21, 21.3, 21.6, 20.2, 15.3, 20.9, 22.3, 23.6, 21.5, 24.8, 23.8, 18.6, 19.8, 16.4, 17.8, 16.6, 17.1%"}, {"measurement": "growth", "setting": "runs of 2019", "value": "inactive: 11.9 (2×), 14.2 (2×), 11.7 (2×), 11.8, 14.7 (2×), 13.6 (2×), 16, 12.6 (4×), 12.2, 14.8 (2×), 18.2, 13.9 (2×), 13.2, 12.1, 12.7, 15.3 (3×), 13.4 (2×), 14.1, 15.4, 17, 17.8, 16.7, 12.3, 14, 15, 16.1 (2×), 14.5, 14.6, 10.4% and active: 9.75, 9.04, 9.69, 9.73, 9.33%"}, {"measurement": "growth", "setting": "runs of 2020", "value": "inactive: 12.6, 21.6, 20.9, 20.1, 23, 22.6, 19.9 (2×), 10.1, 13.1, 10.6, 11.3, 14.2, 16.1, 20.2, 14.8, 14.9, 13.7, 13.3, 14.7%"}]}
